Measured values: the supplement of paper PMC8728848
Some of the results follow.

Experiments:
Test in all cases: glycan array binding signal (z-score within array); higher = stronger binding
Details in all cases: glycan notation: IUPAC condensed, linker removed
[1] = target: Neu5Ac(a2-8)Neu5Ac(a2-3)[GalNAc(b1-4)]Gal(b1-4)Glc
How it was run: (§1)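 From the Consortium for Functional Glycomics database, 3228 arrays were curated, keeping only those whose protein sequence was available. Binding is given as a within-array Z-score averaged across arrays sharing a protein sequence and across linkers. Negative Z-scores can be read as non-binding.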

[2] = target: Neu5Ac(a2-8)Neu5Ac(a2-8)Neu5Ac
How it was run: as §1

[3] = target: Neu5Ac(a2-8)Neu5Ac(a2-8)Neu5Ac(a2-3)Gal(b1-4)Glc
How it was run: as §1

[4] = target: Neu5Ac(a2-8)Neu5Ac(a2-8)Neu5Ac(a2-3)[GalNAc(b1-4)]Gal(b1-4)Glc
How it was run: as §1

[5] = target: Neu5Ac(a2-8)Neu5Ac(a2-8)Neu5Ac(a2-8)Neu5Ac(a2-3)[GalNAc(b1-4)]Gal(b1-4)Glc
How it was run: as §1

Neu5Ac(b1-6)GalNAc = target: Neu5Ac(b1-6)GalNAc
How it was run: as §1

[6] = target: Neu5Ac(b2-6)Gal(b1-4)GlcNAc
How it was run: as §1

[7] = target: Neu5Ac9Ac(a2-6)Gal(b1-4)GlcNAc
How it was run: as §1

[8] = target: Neu5Gc(a2-3)Gal(b1-3)GlcNAc
How it was run: as §1

[9] = target: Neu5Gc(a2-3)Gal(b1-3)[Fuc(a1-4)]GlcNAc
How it was run: as §1

Neu5Gc(a2-3)Gal(b1-4)Glc = target: Neu5Gc(a2-3)Gal(b1-4)Glc
How it was run: as §1

[10] = target: Neu5Gc(a2-3)Gal(b1-4)GlcNAc
How it was run: as §1

[11] = target: Neu5Gc(a2-3)Gal(b1-4)[Fuc(a1-3)]GlcNAc
How it was run: as §1

[12] = target: Neu5Gc(a2-6)Gal(b1-4)GlcNAc
How it was run: as §1

Neu5Gc(a2-6)GalNAc = target: Neu5Gc(a2-6)GalNAc
How it was run: as §1

B1: F17bG (Escherichia coli), Q47200 (protein)
chain: MTNFYKVFLAVFILVCCNISHAVVSFIGSTENDVGPSQGSYSSTHAMDNLPFVYNTGYNIGYQNANVWRIGGGFCVGLDGKVDLPVVGSLDGQSIYGLTEEVGLLIWMGDTNYSRGTAMSGNSWENVFSGWCVGNYLSTQGLSVHVRPVILKRNSSAQYSVQKTSIGSIRMRPYNGSSAGSVQTTVNFSLNPFTLNDTVTSCRLLTPSAVNVSLAAISAGQLPSSGDEVVAGTTSLKLQCDAGVTVWATLTDATTPSNRSDILTLTGASTATGVGLRIYKNTDSTPLKFGPDSPVKGNENQWQLSTGTETSPSVRLYVKYVNTGEGINPGTVNGISTFTFSYQ
glycan array binding signal (z-score) [1]: -0.062 | glycan array binding signal (z-score) [2]: 0.166 | glycan array binding signal (z-score) [3]: -0.071 | glycan array binding signal (z-score) [4]: -0.072 | glycan array binding signal (z-score) [5]: -0.011 | glycan array binding signal (z-score) (Neu5Ac(b1-6)GalNAc): -0.298 | glycan array binding signal (z-score) [6]: -0.406 | glycan array binding signal (z-score) [7]: -0.218 | glycan array binding signal (z-score) [8]: -0.204 | glycan array binding signal (z-score) [9]: -0.367 | glycan array binding signal (z-score) (Neu5Gc(a2-3)Gal(b1-4)Glc): -0.464 | glycan array binding signal (z-score) [10]: -0.002 | glycan array binding signal (z-score) [11]: -0.362 | glycan array binding signal (z-score) [12]: -0.297 | glycan array binding signal (z-score) (Neu5Gc(a2-6)GalNAc): -0.24
